Measurements taken from the supplement of paper PMC11417369.
± gives the standard deviation of the averaged measurements. The list shows a part of the results.

Test system: PfAP2-EXP AP2 domain (GST-tagged)
Experiment: gcPBM binding intensity (ln(normalized median fluorescence intensity)); higher = stronger DNA binding
Procedure, shortened: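 Each value is the highest Masliner-normalised natural-log median intensity across replicate spots of either orientation of a probe. The probes were primer-extended double-stranded 36-bp intergenic genomic sequences on an Agilent 4 × 180k array, alongside negative controls, exposed for 1 h to GST-tagged P. falciparum DNA-binding domains expressed in E. coli. Bound protein was picked up with Alexa488 anti-GST antibody and scanned at 488 nm.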

Sequence	gcPBM binding intensity (ln)
ACGTTTTATTTTTATTGTACTCACATTGAAATGAAT [XGTACX_site6094]	9.1 ± 0.39
ATTTTTTTATAAAATTTTTTATATATTAAATATTAT [CACACA_negctrl_site135]	8.16 ± 0.47
TTTGTAATAACATATGCATGTTCAAAAAATAAAATA [TGCATGCA_site817]	8.4 ± 0.36
AAAATTGTGCTTTCACGGACACAAGATCGAAATAGA [XGTACX_site4068]	8.74 ± 0.36
ATATATTTATACATTTGTACATATACATATTTCTGA [XGTACX_site3982]	8.6 ± 0.35
ATTTTTTTTGTAAAAGTGCATATATATATATATATA	10.4 ± 0.35
AAATTTATATAAAACAGTACAATTAAAAAAAAAATA [XGTACX_site8015]	8.54 ± 0.49
CTTATACTTCTACATCGTACAAAAGATGGTATAATT [XGTACX_site2698]	8.52 ± 0.38
AAATTATAAGTAAAAAGTACTTAATATATAATAAAC [XGTACX_site6065]	8.77 ± 0.31
AAAAAAAAAAAAAATAGTACGTAACTATAATTTCCT [XGTACX_site2457]	8.31 ± 0.2
TATAATTTTTTTTGGGTGCTTGGGTAAATTTTATTA	8.92 ± 0.67
TAACTTAAATAATACATACACACATGTACATACAGA [CACACA_site1594]	8.53 ± 0.3
AATTATATATTATCATGTACAAATATAGTAATACAA [XGTACX_site6845]	8.47 ± 0.4
ATACGTATATAATATACATGCATATATAGCACATAC [TGCATGCA_site376]	8.905 ± 0.064
ATAAAAAAAAAAAAAAATGAAGCATCACCGTGTAAT [XGTACX_negctrl_site288]	8.53 ± 0.54
CACGAAAAAAAAAAATGTACATAAAAATATGATACA [XGTACX_site2536]	8.47 ± 0.37
GAAAGAGAAATATATACACACATATTTATATTTTTA [CACACA_site2066]	8.09 ± 0.33
AAAAAAAAAAAAAAAAAAAAAGGACGGATGGATGGA [GTGCAC_negctrl_site527]	9.14 ± 0.18
TCTCATTTCAACAACAGTACATATCTATCTGTGTAT [XGTACX_site6897]	8.52 ± 0.3
CCTAATTTTTTTAGTTGTACTTTTTTTTTTTTTTAT [XGTACX_site7948]	8.47 ± 0.35
GCCTATATGTTTAGTTGTACTCCTAATATTATTTGT [XGTACX_site6060]	8.96 ± 0.22
CAAATTATTTCGAGGTGTACTTTTTTATATTATATT [XGTACX_site8309]	8.68 ± 0.39

Sequence	gcPBM binding intensity (ln)
TATATAAATGGACACACACACACCTTATAATTATTA [CACACA_site6093]	8.73 ± 0.53
AATGTGTTCATATATGCACACGCATATATATTATTG [CACACA_site9274]	8.57 ± 0.27
TTTATAAATTGACACACACACATGTGAACATAAAAA [CACACA_site6978]	8.68 ± 0.42
TTTTTTTTTTTTTAAATAATCATACATGTGAAATTG [GTGCAC_negctrl_site328]	8.15 ± 0.49
ATCATTTATTTTTTAAAAGTATATATATATATATAT [CACACA_negctrl_site220]	10.1 ± 0.37
TTAATAAAAATATATCCACACACATATATATATATG [CACACA_site8091]	8.45 ± 0.33
TTTTGACATTAACTTAAAAAATAAATAATTATAAAA [XGTACX_negctrl_site552]	8.14 ± 0.44
AAATATAAGTTTTATTGTACATTATATAGCATATTT [XGTACX_site6618]	8.29 ± 0.37
ACATATTATAACATATGTACATATATATATATATAA [XGTACX_site5567]	8.57 ± 0.2
TATCATATAAAACATGCACACATATGTACTCTTATA [CACACA_site9249]	8.77 ± 0.31
CGTTCTATTTAGATATGTACTTAAATATATGATCAT [XGTACX_site2936]	8.31 ± 0.35
AAAAAATAAGATTGTACACACATAAATTCTTTGTCA [CACACA_site2089]	8.49 ± 0.45
TTATAAAACACAAAATGTACAAAAAATTATAATTAA [XGTACX_site6859]	8.68 ± 0.38
TTAAAGAATATTTTCACACATAAAAATTTTAATTTA [CACACA_site4290]	7.86 ± 0.33
AATATTATTATCTTACCACACACAATCTACGAAAAG [CACACA_site8006]	8.54 ± 0.57
TATGTCTTGTTGTAAAATATTTATTAACAAATTGGC [CACACA_negctrl_site1452]	8.43 ± 0.59
TATATATATATAAGTGCACACTGAACCAAGAAAATT [CACACA_site5637]	9.87 ± 0.2
ATTTTTATTTTCTTTACACACCACATAACTTTTTTT [CACACA_site7826]	9.02 ± 0.51
ACTTTTTAATATTTTAGTACACAGTAATTCTTACTA [XGTACX_site1425]	8.77 ± 0.16
ATATATATATATATATGTACATATATCTACATATAT [XGTACX_site7588]	10.2 ± 0.14
TTTAATATGAATTTATGTACATATATATATATATAT [XGTACX_site6337]	10.2 ± 0.35
TATATTAAAAAAAAATGTACATATATATAATATATA [XGTACX_site1935]	8.54 ± 0.27
